# Measurements: paper PMC12136788
# The list shows a part of the results.
# B1: chr3:49066234:49066235:-_ENSG00000178035_ENST00000326739|hu_hu|FALSE|FALSE (ssRNA)
# RNA: GGGAGUUCUACAGUCCGACGAUCAGAAGUCAGGUCCACCUGGUCUGCAGUGAAGUCGAUGUACCCAGGGAGAAUGAGAAAGUCAUUGUAGGUGAGGCCGUCUCCGCAGUUGAAGAGCUGCUGUGCUGUGAGUCCGUCGUCUGGCAACAGAGGAUUGAGCAUCA
# B2: chr16:55990476:55990477:+_ENSMUSG00000022601_ENSMUST00000050248|mus_mus|FALSE|FALSE (ssRNA)
# RNA: GGGAGUUCUACAGUCCGACGAUCUAGUUUAUGUACACUUUCACAAAUUUCUAAAACUUCUGACAUAAAAAGGUGGCGAGCUAAGACGGCUACAUCAGCCAUGCUACAAAAGUCAAAACUUAGUACAGAAGUAUAGGCAAAUUCCAACAGAGGAUUGAGCAUCA
# B3: chr1:39494447:39494448:+_ENSG00000168653_ENST00000372967|hu_mus|hu_hu_hu_mus_False|58_98 (ssRNA)
# RNA: GGGAGUUCUACAGUCCGACGAUCGCACCGAGCGGCGAUCUUGUAGGGCUGUUCUGCGCUUAGGAACAUAAAGUGCCGAUCUAUGUUGAUGCCCAGCUUUUUCUGUAUGUCAAGGAAAGGCAUGGCUCUGCAGUGCCCUUGUCACAACAGAGGAUUGAGCAUCA
# B4: 89236139_89237210_1028_CDS_ENSG00000065243_ENST00000370521|human|control|control (ssRNA)
# RNA: GGGAGUUCUACAGUCCGACGAUCAAGUAAUUUCAUUACAUUCUUUGCACCUUCUGCUACUGCAAACUCUAUCCUAAAAUGAUGCCUUAAUUCUUCCAUCCGAAGUUCAAGAGGACUUAUCACAGGUUUUGCAUUAUCAAAAGCCAACAGAGGAUUGAGCAUCA
# B5: chr9:95013113:95013114:-_ENSG00000196305_ENST00000443024|hu_hu|motif|central (ssRNA)
# RNA: GGGAGUUCUACAGUCCGACGAUCUUCAGUGAGAAAAGGUGUGUAGGGAGCCAUAAGUCUGCAAAGAGAAAGCAGAACACGGAACAAGGUUUCUAGGGCCAUGACACAAUCCUCCAUCCCAUUUUCACCCUUUAAUCUUCUGCGCAACAGAGGAUUGAGCAUCA
# B6: chr12:42180722:42180723:-_ENSMUSG00000036295_ENSMUST00000043884|mus_hu|mus_mus_mus_hu_True|8_68 (ssRNA)
# RNA: GGGAGUUCUACAGUCCGACGAUCCUGUAGGAGAAGAAUCUGUGUGUUAGCUGGCAAUCUGGCUGGGAAGUUUAAAAGACCUAAAUCAUUACAAUCCACUGUAGAUGCUUCCAUAUAAAUGGAUCUGGGGGUAAACCAAGGCCUCAACAGAGGAUUGAGCAUCA
# B7: chr2:9570881:9570882:+_ENSG00000119203_ENST00000238112|hu_hu|FALSE|FALSE (ssRNA)
# RNA: GGGAGUUCUACAGUCCGACGAUCACUUGUCUUCUGUAGAAACCAGGGCAGAGCUCCACAGUGAUCCAAAUGGAAAUGACUAAUUAAUAGGAGAUCAAUCUCAGCUGGGUCAAUUAAAUCAAUAUAAGGAAGAGCAUCCAUUCCCAACAGAGGAUUGAGCAUCA
# B8: chr1:244855233:244855234:+_ENSG00000121644_ENST00000302550|hu_mus|hu_hu_hu_mus_True|78_98 (ssRNA)
# RNA: GGGAGUUCUACAGUCCGACGAUCCAUCAGAUGGUAGGCAUUGCCUUUAUACUCUUUUCCCAGUUCUUCUACAAUUUUCUCUAUAUCAUCUUCUAGAAAGUCCGUACUUCCUAGAACAACAGCUUCUUUAAAUUUAAAUGUUUCCAACAGAGGAUUGAGCAUCA
# B9: 60093252_60098224_983_3pUTR_ENSMUSG00000020986_ENSMUST00000021375|mouse|control|control (ssRNA)
# RNA: GGGAGUUCUACAGUCCGACGAUCAGUGUUGGGGAAAGUACACUCAAGCAGUCCCACAGCUAUGGAAAGCGCCACUCCUGAGGAACGCAGCGGUCUCUUUCCUUGUGGUACAGGCCAAGGGUCUCGCUGAAGUUCUCCCAGAAGCAACAGAGGAUUGAGCAUCA
# B10: 86898947_86899067_1269_CDS_ENSMUSG00000020495_ENSMUST00000020801|mouse|control|control (ssRNA)
# RNA: GGGAGUUCUACAGUCCGACGAUCCUGUGGGUUCCUGCCCACACUGUCAUCAAAACCUUUUUUGCUUAGGACCAGCUCCACGUGCUGCCACAGGAAUUCUCGAAGAGUGAAAUCCACUAGCUGGCCUGAAGAACUCGAGGUGCUCAACAGAGGAUUGAGCAUCA
# B11: chr10:79795341:79795342:+_ENSG00000138326_ENST00000360830|hu_hu|motif|central (ssRNA)
# RNA: GGGAGUUCUACAGUCCGACGAUCAUGAGUUCUGAAUCCAAAUACAAAGAUGACAUCCGGUGUGGUCUUGUACAUUUUGGCGGGUUUUUCCCGAAUUUCUGUCUUAGGCACUGUCGCCUUCCCGGGGUGAAGGACAUCAAUGACCAACAGAGGAUUGAGCAUCA
# B12: chr6:119226881:119226882:+_ENSG00000111875_ENST00000229595|hu_hu|FALSE|FALSE (ssRNA)
# RNA: GGGAGUUCUACAGUCCGACGAUCUGGAUUUUCCCUUAAUUCUGUCUCAGUAUAUUCAUUAUUUACAUAAUAGCCAACUCUAAUAAAUUCUUGUCCUCGAUAGGUACAAGUAAUUAGCACAACAGUUACGCCUACUGCAUCUGCCAACAGAGGAUUGAGCAUCA
# B13: chr7:149068622:149068623:-_ENSMUSG00000025139_ENSMUST00000001950|mus_hu|mus_mus_mus_hu_False|1_38 (ssRNA)
# RNA: GGGAGUUCUACAGUCCGACGAUCGUGAGGCCUCUGAGUGUGGCUUGUGGUCUGUCCUGGGUUAGAGUUGUUAAUAUCACGGAACAUACCAUCUAGAGAGGUUCUGCCCCGCCUGACACCUUCAUUCCCAAUGGAGAAUCUGCUCAACAGAGGAUUGAGCAUCA
# B14: chr7:149068622:149068623:-_ENSMUSG00000025139_ENSMUST00000001950|mus_hu|mus_mus_mus_hu_False|18_48 (ssRNA)
# RNA: GGGAGUUCUACAGUCCGACGAUCGUGAGGCCUCUGAGUGUGGCUUGUGGUCUGUCCUGGGUUAGAGUUGUUAAUAUCACGGAACAUACCACUUAAGACGUUCCAGUCCCGCCUGACCAUCCACCCUCCAAUGGAGAAGAAAUCCAACAGAGGAUUGAGCAUCA
# B15: chr1:114133195:114133196:+_ENSG00000081026_ENST00000369615|hu_hu|FALSE|FALSE (ssRNA)
# RNA: GGGAGUUCUACAGUCCGACGAUCCAUUUCCCAGUUUUUGGGCAGUGGUUCCAGAGUCUCAUCUCUCAUCAUAUAAUUUCUAAAGUCCAUGGAGCUAUUUGUUUGGUUGUAACUUGGAACAGUCUUCAUCCAGUCAGAUGACUCCAACAGAGGAUUGAGCAUCA
# B16: chr2:128605524:128605525:-_ENSG00000144231_ENST00000272645|hu_hu|FALSE|FALSE (ssRNA)
# RNA: GGGAGUUCUACAGUCCGACGAUCCAAGGCUGCUCCAAGAUUCCAUGUCACCUGGGCCUGUGAGUUAUUUGAAACAGCAACCUAACCCCACGCCAAGCUGGGCUGUUUUCUCCAAAGGAAUUCUCAACUGUCUUCAACAGAAUUCAACAGAGGAUUGAGCAUCA
# B17: chr10:98487791:98487792:+_ENSMUSG00000019943_ENSMUST00000020107|mus_mus|motif|central (ssRNA)
# RNA: GGGAGUUCUACAGUCCGACGAUCCAUGCAGCACGUUAAUGGCAAAUUCAAGACGAGGAGUCCACCUUGGGCUCCUGGUCGGAAUAUGCGUCCCAGCAUAUCAUGCUACCUCUUUUUACAGUAUGAAUAACUACAAACACCUGACAACAGAGGAUUGAGCAUCA
# B18: chrX:45560084:45560085:-_ENSMUSG00000036985_ENSMUST00000037960|mus_hu|motif|central (ssRNA)
# RNA: GGGAGUUCUACAGUCCGACGAUCGCGAUUACACGAGAGAAGAAACAGAGGCUGAGCCCAGCUUUGAAAUCACGUUGCCUGCGGUUCCUGCCGCUGGGUCAAACAUCAUCAAAAGUCCAAUUGCUAGCCCUGGAAGACAAUCUCCAACAGAGGAUUGAGCAUCA
# B19: chr19:16212804:16212805:+_ENSG00000167460_ENST00000300933|hu_mus|hu_hu_hu_mus_False|68_68 (ssRNA)
# RNA: GGGAGUUCUACAGUCCGACGAUCAACAAUUCUGGAGUGAAGGAAAGAUGUAACAUGGAACAGCAUUCCAUCUAUUACAGAAGGCACAUGGGCAACAAUGAUCACCCCAGCAUUCUCGCUUGGAAUGCUUAAAGACAAUCUGUUCAACAGAGGAUUGAGCAUCA
# B20: chr6:41757443:41757444:+_ENSG00000214736_ENST00000398881|hu_mus|hu_hu_hu_mus_False|8_28 (ssRNA)
# RNA: GGGAGUUCUACAGUCCGACGAUCGAACCGUGCAGAGGCAACAUCUCAGCCGACACUGGGGGAUGGGGGGGCAGUGGGGGGGGGUUCAGGCAAGGAGAGGGAGUCAACCCAUCUGAACACUCAGGUAGCUGCCAUCAGUCACAGCAACAGAGGAUUGAGCAUCA
# B21: chr4:128450444:128450445:-_ENSMUSG00000028799_ENSMUST00000106072|mus_mus|FALSE|FALSE (ssRNA)
# RNA: GGGAGUUCUACAGUCCGACGAUCAGGCUGUUAACAGUAUUGGAACAGCAUAUUUACAGGGUAGUAACAUGCGGACAAAAGCUACAAUACGGAGUAUCAGACGACGCAAGUCAAACAAAGGGGUGGGGGUGGGGGGCUGAGACCCAACAGAGGAUUGAGCAUCA
# B22: 122453384_122453504_3621_CDS_ENSMUSG00000034602_ENSMUST00000073792|mouse|control|control (ssRNA)
# RNA: GGGAGUUCUACAGUCCGACGAUCCAGGGUCUGCCCUGCGCUCUUCCUCACGGCAGGGCGGGGGUCCACACAAAGCUCCCCCAGCUUGGCAUAGAGGCAGAGCCACAAGCAGUCGAACGGUGGCGCGGGGUGGAACGGCCGGUUCAACAGAGGAUUGAGCAUCA
# Target: T1, UNK ZnF1-3 (human, UniProt Q9C0B0 31-174)
# T1 sequence: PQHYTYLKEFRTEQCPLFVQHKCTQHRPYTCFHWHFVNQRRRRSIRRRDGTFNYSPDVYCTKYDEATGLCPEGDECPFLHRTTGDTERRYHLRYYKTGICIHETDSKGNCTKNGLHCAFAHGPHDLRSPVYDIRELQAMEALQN
# Experiment: nsRBNS (natural sequence RNA bind-n-seq); RBNS binding buffer (assumed for nsRBNS): 25 mM Tris pH 7.5, 150 mM KCl, 3 mM MgCl2, 0.01% Triton X-100, 500 ug/ml BSA, 20 U/ml SUPERase-In, 4 C; UNK is unkempt and MSI1 is Musashi-1; names of the RNAs are library labels; protein concentration not given here; high values mean tight binding
row,Binder,binding signal [enrichment R]
1,B1,1.62
2,B2,1.14
3,B3,0.443
4,B4,1.01
5,B5,1.27
6,B6,1.29
7,B7,2.33
8,B8,1.41
9,B9,0.383
10,B10,0.903
11,B11,0.935
12,B12,0.818
13,B13,0.745
14,B14,0.707
15,B15,0.699
16,B16,1.09
17,B17,0.896
18,B18,1.46
19,B19,0.862
20,B20,1.61
21,B21,1.64
22,B22,0.599
